Test results taken from the antibiotic and cytotoxicity screens of Wong et al. (2023).
This is one part of the list.

Legend:
[1] = tested on: HSkMC (human skeletal muscle cells); experiment: cytotoxicity call (relative viability < 0.9); details: 10 µM
[2] = tested on: HepG2; experiment: cytotoxicity call (relative viability < 0.9); details: 10 µM
[3] = tested on: S. aureus RN4220; experiment: growth inhibition call (relative growth <= 0.2); details: 50 µM

Row | Structure (SMILES) | cytotoxicity call [1] | cytotoxicity call [2] | growth inhibition call [3]
1 | C[C@H]1CN([C@@H](C)CO)C(=O)c2cc(NC(=O)CCCCCC(=O)Nc3ccccc3N)ccc2O[C@@H]1CN(C)Cc1ccccc1 | inactive | active | inactive
2 | C[C@H](CO)N1C[C@H](C)[C@H](CN(C)Cc2ccc(Cl)c(Cl)c2)Oc2ccc(NC(=O)Cn3cnnn3)cc2CC1=O | inactive | inactive | inactive
3 | C[C@@H]1CN([C@@H](C)CO)C(=O)c2cccc(NS(C)(=O)=O)c2O[C@@H]1CN(C)S(=O)(=O)c1ccc(Cl)cc1 | inactive | inactive | inactive
4 | Cc1ccccc1S(=O)(=O)N1C[C@@H](O)COC[C@@H]2O[C@H](CC(=O)NCCc3ccccc3)CC[C@H]21 | inactive | inactive | inactive
5 | C[C@@H]1CN([C@H](C)CO)C(=O)c2cc(NC(=O)C3CCCCC3)ccc2O[C@@H]1CN(C)C(=O)Nc1cccc2ccccc12 | inactive | inactive | inactive
6 | C[C@H](CO)N1C[C@H](C)[C@@H](CN(C)C(=O)c2ccccc2)OCCCC[C@H](C)Oc2ccc(NC(=O)Nc3ccc(C(F)(F)F)cc3)cc2C1=O | inactive | inactive | inactive
7 | CC(C)NC(=O)Nc1ccc2c(c1)C(=O)N([C@@H](C)CO)C[C@@H](C)[C@@H](CN(C)S(=O)(=O)c1cn(C)cn1)OCCCC[C@H](C)O2 | inactive | inactive | inactive
8 | Cc1ccc(S(=O)(=O)Nc2ccc3c(c2)C(=O)N([C@H](C)CO)C[C@@H](C)[C@@H](CN(C)C(=O)Nc2ccc4c(c2)OCO4)OCCCC[C@H](C)O3)cc1 | inactive | inactive | inactive
9 | C[C@@H]1CN([C@@H](C)CO)C(=O)c2cccc(NC(=O)c3ccc(-c4nccs4)cc3)c2O[C@@H]1CN(C)C(=O)Nc1ccccc1 | inactive | inactive | inactive
10 | C[C@H](CO)N1C[C@H](C)[C@@H](CN(C)Cc2ccncc2)Oc2ccc(NS(=O)(=O)c3cccs3)cc2CC1=O | inactive | inactive | inactive
11 | CC(NC(=NC#N)Nc1ccncc1)C(C)(C)C (stereo not drawn) | inactive | inactive | inactive
12 | Cc1ccc(N2CCC(CN)CC2)nn1 | inactive | inactive | inactive
13 | Cc1noc(C)c1NC(=O)Nc1ccc2c(c1)C(=O)N([C@H](C)CO)C[C@H](C)[C@@H](CN(C)CC1CC1)OCCCC[C@@H](C)O2 | inactive | inactive | inactive
14 | C[C@@H]1CCCCO[C@H](CN(C)C(=O)Nc2ccc(C(F)(F)F)cc2)[C@H](C)CN([C@H](C)CO)C(=O)c2cc(NS(=O)(=O)c3cccs3)ccc2O1 | inactive | inactive | inactive
15 | Cn1nnnc1-c1ccco1 | inactive | inactive | inactive
16 | C[C@H]1CN([C@@H](C)CO)C(=O)Cc2cc(NC(=O)c3ccncc3)ccc2O[C@@H]1CN(C)Cc1ccncc1 | inactive | inactive | inactive
17 | C[C@@H]1CN([C@@H](C)CO)C(=O)Cc2cc(NC(=O)Nc3ccc(C(F)(F)F)cc3)ccc2O[C@@H]1CN(C)CC1CCCCC1 | inactive | active | inactive
18 | C[C@@H]1CCCCO[C@@H](CN(C)C(=O)c2ccccc2)[C@H](C)CN([C@H](C)CO)C(=O)c2cc(NC(=O)Nc3cccc4ccccc34)ccc2O1 | inactive | inactive | inactive
19 | O=C(O)C1=CCCNC1 | inactive | inactive | inactive
20 | C[C@H](CO)N1C[C@H](C)[C@@H](CN(C)Cc2ccc(C(F)(F)F)cc2)OCCCC[C@H](C)Oc2ccc(NC(=O)CCC(F)(F)F)cc2C1=O | inactive | inactive | inactive
21 | C=CCN1C(=O)[C@@]2(O[C@@H](CCn3cc([C@H](O)c4ccccc4)nn3)[C@H]([Si](C)(C)c3ccc(OC)cc3)[C@H]2C)c2ccccc21 | inactive | inactive | inactive
22 | COc1ccc(S(=O)(=O)N[C@H]2CC[C@@H](CC(=O)N3CCC(Cc4ccccc4)CC3)O[C@H]2CO)cc1 | inactive | inactive | inactive
23 | C[C@@H]1CN([C@H](C)CO)C(=O)c2cc(NC(=O)Nc3ccccc3)ccc2O[C@@H]1CN(C)Cc1ccc(C(F)(F)F)cc1 | active | inactive | inactive
24 | CCCCCCCCCCNc1cc(CO)c2cc[nH]c2c1 | inactive | inactive | inactive
25 | C[C@H](CO)N1C[C@H](C)[C@@H](CN(C)Cc2ccc3c(c2)OCO3)Oc2ncc(C#CCN(C)C)cc2C1=O | inactive | inactive | inactive
26 | CC(C)OC(=O)OCOP(=O)(CO[C@H](C)Cn1cnc2c(N)ncnc21)OCOC(=O)OC(C)C | inactive | inactive | inactive
